From PubChem BioAssay AID1508623 (National Center for Advancing Translational Sciences (NCATS), 2021)
The campaign covered roughly 48,000 compounds. About 450 (0.94%) were called active. Not shown: some 19% with an inconclusive outcome. Calls follow the shape of the dose curve; as a rule, active = well fitted inhibition curve with a large enough effect; inconclusive = small, poorly fitted or top-dose-only effect; inactive = no such curve, though single readings can be large or run the other way. The list shows a part of the results.

Experiment: Primary qHTS for Identification of Small Molecule Inhibitors of Huntingtin Promoter Activity; also: nearly all actives have a fitted effect of over 50% in size
Conditions: HEK293 HTT promoter firefly luciferase reporter (activity 0% = vehicle and -100% = no light), 24 h; series mostly up to 57.5 µM; activity change, negative = inhibition: at the top concentration
Procedure, shortened: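 HEK293 Fluc reporter, 2,500 cells/well, 24 h pre-culture; cpds up to 57.5 uM final, 24 h 37 degrees C; Dual-Glo, 10 min RT; normalized vehicle = 0%, zero RLU = -100%.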

Activity change, negative = inhibition, inactive:
NS(=O)(=O)c1ccc(CCNC(=O)C2COc3ccccc3C2)cc1 (centres undefined) -14%, CCc1ccc(C2CC(=O)c3c([nH]c(C(=O)OCC4CCCCC4)c3C)C2)cc1 (centres undefined) -0.592%, Cc1ccc(-n2ncc3c(N4CCCCCC4)ncnc32)cc1 -90.3%, c1ccc(-n2ncc3c(NC4CCCC4)ncnc32)cc1 28.5%, COc1ccc(NS(=O)(=O)c2cc3[nH]c(=O)c(=O)[nH]c3cc2C)cc1Cl 3.8%, CCC(=O)N1CCc2cc(Br)cc(S(=O)(=O)CCC(=O)NCCc3ccc(OC)c(OC)c3)c21 2.27%, CCOc1ccc(/C=C/c2nc(C#N)c(N3CCN(c4ccc(OC)cc4)CC3)o2)cc1 -2.42%, Cn1cc(S(=O)(=O)N2CCCCCC2)cc1C(=O)N1CCN(c2ccc(F)cc2)CC1 -26.6%, Cc1ccc(NC(=O)Cc2c(C(=O)O)c(C)cn2C)cc1Cl 4.06%, CC(C)OCCCn1c(SCc2ccccc2C#N)nc2c(sc3ccccc32)c1=O -13.2%, CCN(CC)CC(C)CNC(=O)CN1C(=O)CSc2ccc(S(=O)(=O)N3CCOCC3)cc21 (centres undefined) -10.8%, CCN(CC)CCOc1ccc2c(c1)C(=O)c1cc(OCCN(CC)CC)ccc1-2 0.875%, COc1cc(OC)c(NC(=O)CN2C(=O)CCn3nc(-c4cccn4C)cc32)cc1Cl 0%, NS(=O)(=O)c1ccc(NC(=O)CSc2ccc3ccccc3n2)cc1 -23.2%, Cc1ccc(S(=O)(=O)c2cn(CC(=O)Nc3cccc(C)c3)c3cc4c(cc3c2=O)OCO4)cc1 -10.6%, CC1CCC(C(=O)NC(C(=O)OCC(=O)c2ccc(Br)cc2)C(C)C)CC1 (centres undefined) -25.6%, Cc1ccc(CNS(=O)(=O)c2cc3c(cc2Cl)NC(=O)CO3)o1 2.87%, Cc1ccc(/C=C/c2onc(C)c2S(=O)(=O)N2CCC(C(=O)Nc3ccc(Br)c(C)c3)CC2)cc1 -8.26%, CCC(CC)C(=O)Nc1cc(-c2ccccc2F)nn1-c1ccccc1 -15%, CNS(=O)(=O)c1cn(CC(=O)Nc2ccc(OC)cc2OC)cc1S(=O)(=O)NC 9.2%, Cc1ccccc1/C=C(\C#N)c1nc(-c2ccc(Cl)cc2)cs1 27.9%, Cc1csc2nc(-c3ccc(NS(=O)(=O)c4cc(F)ccc4F)cc3)cn12 -21.1%, Cc1ccc(CNC(=O)c2nnc(Cc3ccc(Cl)cc3)o2)cc1 -1.78%, CN(C(=O)c1ccc2c(Cl)c3c(nc2c1)CCC3)c1ccccc1F 12.9%, COc1ccccc1C(=O)Nc1ccc(C(=O)OCc2cc(=O)n3nc(C)sc3n2)cc1 -2.7%, CCN(CC)C(=O)Cn1c(=O)n(-c2ccccc2)c(=O)c2c3c(sc21)CCC3 0%, Cc1ccc(NC(=O)Cn2c(-c3cncs3)nc3ccccc32)c(Br)c1 -10.4%, Cc1ccc(CNC(=O)CN2C(=O)C3(SCC(=O)N3c3ccc(F)cc3)c3ccccc32)cc1 (centres undefined) -10.8%, CC(=O)N1CCc2c(sc3c2c(=O)n(Cc2ccccc2)c(=O)n3Cc2cc(C)ccc2C)C1 -0.751%, CC1CN(C(=O)N2CCC(C(=O)NCCCc3ccccc3)CC2)c2ccccc2O1 (centres undefined) -29.8%, CCOc1ccc(Nc2oc(/C=C/c3cccc(OC)c3)nc2C#N)cc1 -5.15%, CCCCCn1c(CCNC(=O)c2cccc(C)c2)nc2ccccc21 -29.6%, CCc1ccc(CNC(=O)C2CCCN(S(=O)(=O)c3ccc4c(ccn4C)c3)C2)cc1 (centres undefined) 0%, COc1ccc(CNC(=O)CCc2nc(-c3ccc(OC)cc3)no2)cc1 13.5%, Cc1cc(C)c2c(n1)sc1c(=O)n(-c3ccccc3C(F)(F)F)nnc12 -2.3%, CCC(=O)N1CCc2cc(CNS(=O)(=O)c3cccs3)ccc21 33.8%, CCCCOc1ccc(CNC(=O)c2ccc3c(c2)N(C)C(=O)C2CCCCN32)cc1 (centres undefined) -28.5%, Cc1ccc(OCCSc2nc3ccc(NC(=O)c4ccc(F)cc4)cc3s2)cc1 -3.85%, CCOC(=O)C(CC)Sc1c(CC)cnc2c1c(=O)n(C)c(=O)n2C (centres undefined) -15.7%, Cc1ccc(Cc2cn3cc(-c4ccc(F)cc4)nc3s2)cc1 17.7%, COc1ccc(-c2c(C)c3ccc(O)c(CN4CCCC4)c3oc2=O)cc1OC -0.185%, COc1cccc(-c2cn3ncsc3n2)c1 57.7%, Cc1ccccc1CSc1ccc(-c2cccs2)nn1 1.64%, CN1CCC(=C2c3ccccc3Sc3ccccc32)CC1 -1.67%, Cc1cc(C)n(-c2nc(C)c(C)c(=O)n2CC(=O)Nc2ccc(OC(F)(F)F)cc2)n1 -21.6%, Cc1cccc(NC(=O)c2cc(S(=O)(=O)N3CCCCCC3)cn2C)c1C -17.6%, Cc1ccc(NC(=O)Cn2cc(C(=O)C3CC3)c3ccccc32)cc1C 4.21%, Cc1ccc(CNC(=O)c2ccc(Cn3c(=O)c4ccccc4n(CC(=O)Nc4c(C)cc(C)cc4C)c3=O)cc2)cc1 -3.84%, O=C(NCC(c1cccs1)S(=O)(=O)c1cccs1)c1cccc(F)c1 (centres undefined) -26.3%, c1cnc(N2CCN(c3ncc4c(n3)CCNC4)CC2)nc1 2.03%, COc1ccc(OC)c(-n2nnc(-c3nc(-c4cc(OC)c(OC)c(OC)c4)no3)c2C)c1 2.58%, COc1ccc(-c2nc3ccccc3n3c(-c4ccccc4)c4c(=O)n(C)c(=O)n(C)c4c23)cc1OC -5.62%, O=c1oc2c3c(ccc2c2ccccc12)OCN(Cc1ccc(Cl)cc1)C3 -12%, O=C(NCc1ccccc1)c1cccn1-c1nnc(N2CCCC2)s1 -10.9%, CC(=O)N1c2ccccc2C(C)(c2ccc(C)cc2)CC1(C)C (centres undefined) -11.3%, O=C(O)C=Cc1ccc(O)c(O)c1 -3.87%, COCCn1c(=O)[nH]c2cc(C(=O)N3CCN(c4ccccc4)CC3)ccc2c1=O -9.39%, CC(=O)N1CCc2cc(S(=O)(=O)NC(Cc3ccccc3)C(=O)Nc3cc(C)ccc3C)ccc21 (centres undefined) -8.52%, CCOc1ccc(CNC(=O)c2nn(-c3ccc(OC)cc3)c(=O)c3c2c2ccccc2n3C)cc1 -6.67%, NC(=O)CSc1ncc2c(n1)-c1ccccc1N(Cc1ccc(F)cc1)S2(=O)=O -15.4%, CCOc1ccc(C(=O)Nc2ccc3nc(SCC(=O)N4CCc5ccccc54)sc3c2)cc1 -7.79%, Cc1ccc(-c2ccc(CCC(=O)O)n2-c2ccc(C(N)=O)cc2)cc1 -10.5%, COc1ccc(-c2n[nH]c3c2cnc2ccc(F)cc23)cc1 21.8%, COc1ccc(-c2cc3ccc(O)c(CN4CCCC4)c3oc2=O)cc1 32%, Cc1ccc(-c2c(C(=O)NCCc3ccccc3)oc(=O)c3ccccc23)cc1 -28.4%, COc1ccccc1NC(=O)c1cnc(SCC(=O)N2CCOCC2)n(C)c1=O 31.3%, COc1ccc2c(c1)c1c(c(=O)n(Cc3ccccc3)c(=O)n1Cc1cccc(Cl)c1)n2C -10.7%, Cc1cc(C)c2oc(-c3ccc(Cl)c(NC(=O)c4cccs4)c3)nc2c1 -1.21%, CCn1cc(C(=O)NCCCOC)c(=O)c2cc(S(=O)(=O)N3CCc4ccccc4C3)ccc21 -9.63%, CCOC(=O)C1CCCN(CC(=O)Nc2cc(C)c3c(=O)oc4ccccc4c3n2)C1 (centres undefined) -0.467%, Cc1cc(C)cc(NC(=O)C2CCN(S(=O)(=O)c3cn(C)cn3)CC2)c1 -1.42%, O=c1oc2ccc3ccccc3c2cc1-c1nnc(Nc2ccccc2F)s1 4.52%, Cc1ccc(=O)n(-c2ccccc2)c1 7.78%, Cc1cc2c(cc1NS(=O)(=O)c1cccc(C#N)c1)n(C)c(=O)c(=O)n2C -7.94%, CCc1cccc(C)c1NC(=O)Cn1nnc(-c2nc(-c3ccccc3F)no2)c1N -5.37%, COc1ccc(NS(=O)(=O)c2cc3c(cc2C)N(C(C)=O)CCO3)cc1 -7.42%, Cn1cc(S(=O)(=O)N2CCCCCC2)cc1C(=O)Nc1ccc(Cl)c(C(F)(F)F)c1 -8.07%, Cc1ccc(C(C)C)c(OCC(O)CN2CCN(c3ccccc3F)CC2)c1 (centres undefined) -21.3%, Cc1cccc(NC(=O)CSc2nc(-c3ccccc3)cc(=O)[nH]2)c1C -13.1%, Cc1ccc(NC(=O)CCC(=O)N2Cc3ccccc3Oc3ncccc32)c(C)c1 -10.2%, CCOc1ccc(CCNC(=O)CN2C(=O)COc3ccc(S(=O)(=O)N4CCCC4)cc32)cc1 -25.5%, Cc1cc(CN2CCN(c3c(Br)cnc4nc(-c5ccc(N6CCN(C)CC6)cc5)[nH]c34)CC2)no1 -2.71%, CCn1c(=N)c(C(=O)NCc2ccccc2)cc2c(=O)n3cccc(C)c3nc21 -3.31%, Cc1cccc(-c2nc(C)c(CCNC(=O)C(=O)Nc3ccccc3C#N)s2)c1 -15.1%, COC(=O)c1ccc2c(=O)n(CCCCCC(=O)NCCc3ccc(Cl)cc3)c(=O)[nH]c2c1 -14.9%, Cc1ccc(Cn2ccnc2SCC(=O)NCc2ccccc2Cl)cc1 -16.6%, N#Cc1c(C(F)(F)F)cc(-c2ccc(F)cc2)nc1SCC(=O)Nc1ccccc1 -13.8%, Cc1ccccc1NC(=O)CSc1nc2ccccc2c2nc(CCn3cncc3C)nn12 11.5%, Cc1ccc(CNC(=O)C(C)n2nc(C)n3c(cc4sccc43)c2=O)cc1 (centres undefined) 6.63%, O=C(CCS(=O)(=O)c1ccc(Br)cc1)Nc1ccc(F)cc1F -4.69%, Cc1ccc(-c2nc3ncccn3c2Nc2ccc3c(c2)OCCO3)cc1 6.02%, CCc1ccc(CNc2ccc3c(c2)ncn3C(C)(C)C)cc1 40%, COc1cccc2c1cc1c(=O)n(CC(=O)N3CCN(c4ccccc4)CC3)nc(C)n12 -0.738%, O=C1CC(c2nc(-c3ccccc3)no2)CN1c1ccccc1 (centres undefined) 0%, CCc1nc2ccc(C(=O)NCc3cc(OC)ccc3OC)cc2nc1CC -5.42%, Cc1cccc2sc(N(CCN(C)C)C(=O)c3ccc4c(c3)OCCO4)nc12 -25.1%, COc1ccc(Cn2c(=O)n(Cc3ccco3)c(=O)c3oc4ccccc4c32)cc1 -0.963%, Cc1cc(OC(C)C(=O)Nc2cccc(-c3nc4ccccc4o3)c2)cc(C)c1Cl (centres undefined) 29.1%, CC(=O)N1CCc2cc(S(=O)(=O)CCC(=O)Nc3ccc(C)cc3Br)ccc21 -21.4%
